The test system of the experiment is NCI-H322M lung. Description: NCI-60 cell line screen, 48 h.

These results are taken from PubChem BioAssay (NCI).

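How tested: cells in 96-well plates exposed to compound for 48 hours at five concentrations. At the GI50, growth is halved. TGI is the concentration that stops growth completely.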 Bounds are passed on as bounds.

Regarding `Cc1nc2ccccc2n1Cc1nnc(N)o1`, the TGI is greater than 100 µM. As to `COc1cc2c(cc1OCCCC(=O)Nc1cc(C(=O)NCCCN(C)C)n(C)n1)N=CC1CCCN1C2=O` (configuration not stated), the TGI is greater than 57.3 µM.

Consider `COc1cc2c(cc1OCCCCOc1ccc(-c3nc4ccccc4s3)cc1)N=C[C@@H]1CCCN1C2=O`, for which the GI50 is 2.7 µM and the TGI worked out at 8.81 µM. As to `O=C1CCS/C(=N\S(=O)(=O)c2ccc(N3N=C4c5ccccc5CC4C3c3cccs3)cc2)N1C(=O)c1ccccc1` (configuration not stated), the GI50 was 32.5 µM and the TGI is 70.8 µM. The molecule `Cc1cc(N(CCCl)CCCl)ccc1/C=N/NC(=O)Cc1cc(=O)oc2cc(O)ccc12` returned a TGI of 54 µM. On the same count and under the same terms, in the case of `COc1ccc(Oc2nc(C#CC(C)(C)O)nc(Oc3ccc(OC)cc3)n2)cc1` it was 30.5 µM; in that of `O=c1cc(N=Nc2ccc(Cl)cc2)[nH]c(=O)[nH]1`, 19.6 µM. Turning to `Cc1ccc2c(c1)CNc1ccc(C)cc1CN2`, the TGI is greater than 100 µM. The molecule `CCOC(=O)C(C(=O)OCC)=C1NC2(c3ccccc3Nc3ccc(C)cc32)C(C(=O)OC)S1` (configuration not stated) registered a TGI greater than 100 µM. `Nc1ccc(Oc2ccc(C34CC5CC6C3CC3CC4C(C5)C6(c4ccc(Oc5ccc(N)c(O)c5)cc4)C3)cc2)cc1O`: the TGI is greater than 33.2 µM.

With `N#Cc1nc(CCC(c2nc(C#N)c(N)o2)N2C(=O)c3ccccc3C2=O)oc1N` (configuration not stated), the TGI was greater than 100 µM. On to `Cc1nnc(-n2c(O)cc(=O)n(-c3ccccc3)c2=S)nc1/C=C/c1ccc(N(C)C)cc1`, for which the TGI is greater than 74.6 µM. As to `CC(C)(C)c1ccc(C(C)(C)C)c(N2C(=O)C3ON=C(c4ccc([N+](=O)[O-])cc4)C3C2=O)c1` (configuration not stated), the TGI is greater than 25 µM. Molecule `Cc1ccc(S(=O)(=O)N2CCNCCN(S(=O)(=O)c3ccc(C)cc3)CCN(S(=O)(=O)c3ccc(C)cc3)CC2)cc1` yielded a TGI greater than 100 µM. In turn, `Cc1cc2nc(N3C(=O)/C(=C/c4ccc(Cl)cc4)N=C3c3ccccc3)sc2cc1C` registered a TGI greater than 100 µM. `CSc1ncnc2c1CCN2`: the GI50 is greater than 100 µM and the TGI was greater than 100 µM. On to `C=C1C[C@@]2(C)C(CC[C@]3(C)C2CC=C2C4CC(C)(C)C[C@@H](OC(=O)/C(C)=C\C)[C@]4(C(=O)O)CC[C@]23C)C(C)(C)C1=O` (some centres not stated), for which the GI50 was 4.54 µM and the TGI came out at 16.7 µM. As for `Cc1nc(C(N)=S)sc1C(=O)C/C(=N/N)C(=O)Nc1ccc(Cl)cc1`, the TGI was greater than 100 µM. As for `Clc1nc(Cl)c(CBr)c(Cl)n1`, the TGI was 30.8 µM.

With `Cc1cc(=O)oc2cc(OS(C)(=O)=O)ccc12`, the TGI is greater than 100 µM. On to `O=C(COc1cccc(/C=C2\CSc3ccccc3C2=O)c1)c1ccc(Cl)cc1`, for which the GI50 was 14 µM and the TGI came to 47.5 µM. Molecule `CC(C)(C)[C@H]1CCC2(OCCO2)[C@](O)(CCCO)C1` showed a TGI greater than 100 µM. Take `CCC(C(=O)c1ccccc1)C(CCCC(=O)Nc1c(C)cccc1C)N=O` (configuration not stated): the TGI is greater than 100 µM. The molecule `CC[C@@]12C=CC(=S)N(CCSc3ccccc3)[C@@H]1c1c(n(S(=O)(=O)c3ccc(OC)cc3)c3ccccc13)CC2` came in with a TGI greater than 100 µM. In the case of `CCNCCCn1c2c(c3ccc([N+](=O)[O-])cc3c1=O)C(=O)c1cc(OC)cnc1-2`, the GI50 is 0.0644 µM and the TGI was found to be 0.926 µM. In turn, `O=C(OCCC12CC3CC(CC(C3)C1)C2)c1ccc(NCc2cc(O)ccc2O)cc1` came in with a TGI of 22.2 µM.

The molecule `Clc1c(C(Cl)(Cl)Cl)nsc1N1CCCCC1` returned a TGI greater than 100 µM.

Turning to `CC(C)C(=O)/C=C/c1ccc(Cl)c(Cl)c1`, the TGI was 80.7 µM. With `Nn1c(Cc2ccccc2)n[nH]c1=O`, the TGI was greater than 100 µM. As for `Cc1c(N=Cc2ccc(N(CCC#N)CCC#N)cc2)c(=O)n(-c2ccccc2)n1C`, the TGI was greater than 100 µM. `O=C1CS/C(=N\S(=O)(=O)c2ccc(N3N=C4c5ccccc5CC4C3c3ccc(Cl)cc3)cc2)N1c1ccccc1` (configuration not stated): the GI50 is 19.3 µM and the TGI was greater than 100 µM.

With `CCCN(CCSSCCNc1nc(N(C)O)nc(N(C)O)n1)c1nc(N(C)O)nc(N(C)O)n1`, the GI50 is 4.4 µM and the TGI was greater than 100 µM.

Molecule `CSc1nc2c(=O)n(-c3ccccc3)c(=S)n(-c3ccccc3)c2s1` returned a TGI greater than 100 µM.

`C(=C\c1cc(-c2ccc3ccccc3n2)nc2ccc3ccccc3c12)/c1ccc2ccccc2n1` yielded a TGI greater than 100 µM. For `CC(=O)Oc1ccc(/C=C/C(=O)O[C@H]2CCCC[C@@H]2OC(=O)/C=C/c2ccc(OC(C)=O)c(OC(C)=O)c2)cc1OC(C)=O`, the TGI stood at 45.1 µM. The same measure, in the same setting: in the case of `COc1cc2c(cn1)[nH]c1ccccc12` it was greater than 100 µM; in that of `c1ccc(C2=NCCc3cc4c(cc32)OCO4)cc1`, greater than 100 µM; in that of `N#CC1C2CCC3(CC2CCN1C(=O)c1ccccc1)OCCO3` (configuration not stated), greater than 100 µM. As for `NS(=O)(=O)c1ccc(NC(=O)c2cccc3cc4ccccc4nc23)cc1`, the TGI is greater than 100 µM. `COC1=C(Br)C(=O)C2=C(C1=O)C1C3=C(C(=O)C=CC3=O)C2c2ccccc21` (configuration not stated): the GI50 was 36.1 µM and the TGI came to 89.4 µM.

`CC1(C)CCC(=O)NC1CC(=O)CC1NC(=O)CCC1(C)C` (configuration not stated) registered a TGI greater than 100 µM. `CC(=O)OCC1OC(O/C=C(\CN=[N+]=[N-])C(C)=O)C(OC(C)=O)C(OC(C)=O)C1OC(C)=O` (configuration not stated) showed a TGI of 48.3 µM. `O=C(c1ccc(Cl)cc1)c1ccc(OCCSCCCCCCCCCCSCCOc2ccc(C(=O)c3ccc(Cl)cc3)cc2)cc1` registered a TGI greater than 100 µM. Regarding `Cc1cc2cn3c4cccnc4[nH]c(=O)c3c2cc1C`, the GI50 was 1.85 µM and the TGI stood at 3.47 µM. As for `COc1ccc(OC)c2c(=S)c3ccccc3[nH]c12`, the TGI was greater than 100 µM. For `C[C@H](N)C(=O)N1C[C@H](CCCB(O)O)[C@](N)(C(=O)O)C1`, the GI50 was greater than 100 µM and the TGI is greater than 100 µM. In turn, `CCOP(=O)(OCC)C1=NC=CC=CC1n1c(-c2ccccc2)nn(CC)c1=O` (configuration not stated) gave a TGI greater than 100 µM. With `CNCCCNCCCN1C(=O)c2ccc3c4c(ccc(c24)C1=O)C(=O)N(CCCNCc1ccccc1OC)C3=O`, the GI50 is 2.22 µM and the TGI came to 10.8 µM. As for `S=c1nc(N2CCCCC2)ss1`, the TGI was greater than 100 µM.

Molecule `COc1ccc(-c2cc(-c3cc(F)c(Cl)cc3Cl)on2)cc1OC` came in with a TGI greater than 100 µM. `CC(=O)OCC1=C(C)C[C@H]([C@@H](COC(C)=O)C2CCC3C4C[C@H]5O[C@]56CC=CC(=O)[C@]6(C)C4CC[C@@]32C)OC1=O` (some centres not stated) displayed a TGI of 7.7 µM. `COc1ccc(N(/C=C/C(=O)C(F)(F)F)CC(=O)c2ccc(Cl)c(Cl)c2)cc1`: the GI50 is 13 µM and the TGI is 27.5 µM. `CCCCCCCCCCCCCCCCCCOCC(COP(=O)([O-])OCC[N+](C)(C)C)OC` (configuration not stated) had a TGI greater than 74.4 µM. `N=c1c2c(=S)n(-c3ccccc3)c(=S)n(-c3ccccc3)c2nc(SCCN2CCOCC2)n1-c1ccccc1`: the TGI was determined as 5.56 µM. `O=C1c2ccccc2-c2nc(/C=C/c3ccccc3)cc3c2c1nc1ccccc13`: the TGI is greater than 100 µM. For `c1ccc2nc(CCC3CCCCN3)ccc2c1` (configuration not stated), the TGI is greater than 100 µM. The molecule `CC(C)c1ccc(NC(=S)NC(=O)c2ccccc2)cc1` showed a TGI greater than 100 µM. With `COc1ccc2c(c1)/C(=N/OC(C)=O)c1c-2c(=O)[nH]c2ccccc12`, the GI50 was 12.1 µM and the TGI worked out at 31.9 µM. Take `COc1ccc(N(C)c2c3ccccc3nc3[nH]c4ccccc4c23)cc1`: the GI50 was 0.391 µM and the TGI was determined as 1.23 µM.

With `Cn1c(=O)c(Oc2ccccc2)cc2cnc(NC3CCOCC3)nc21`, the GI50 is greater than 25 µM and the TGI was greater than 25 µM.

The molecule `CCOc1ccc2nc(NC(NC(=O)c3cccnc3)(C(F)(F)F)C(F)(F)F)sc2c1` returned a TGI greater than 100 µM. Regarding `CCOC(=O)Nc1nc2c(C)cccc2s1`, the GI50 is 77.3 µM and the TGI was greater than 100 µM. On to `COc1cc(OC)c(C(=O)/C=C/c2cccc(OC(C)=O)c2)cc1CC=C(C)C`, for which the GI50 is 21.4 µM and the TGI was greater than 50 µM.

On to `COC(=O)[C@H](Cc1ccccc1)NP(=O)(O)OCC1C=CC(n2cc(C)c(=O)[nH]c2=O)O1` (some centres not stated), for which the TGI was greater than 100 µM. Turning to `CC(=O)O[C@H]1C[C@H]2C(=S)Nc3ccccc3C(=S)N2C1`, the TGI was greater than 100 µM. For the molecule `S=C(Nc1ccccn1)Nc1ccccc1Cl`, the TGI was greater than 100 µM.

`COc1ccc(/C=C/NC=O)cc1` returned a TGI greater than 100 µM. Still for that read-out and setting: in the case of `Clc1ncc(Cl)c(Cl)n1` it was 27.3 µM; in that of `O=C(/C=C/c1ccccc1Cl)c1ccc(Cl)cc1Cl`, 34 µM. `COc1ccc2c(c1)/C(=C/c1cc(OC)c(OC)c(OC)c1)C(=O)N2C`: the GI50 is 3.79 µM and the TGI is greater than 56.5 µM. Take `CS(=O)(=O)OCCCOS(C)(=O)=O`: the TGI is greater than 100 µM. Take `Oc1ccccc1-c1n[nH]c(=S)n1/N=C/c1ccc(-c2ccc(Br)cc2)o1`: the TGI was greater than 100 µM. `c1ccc(N=C2SC3=NCCN3C2=Nc2ccccc2)cc1` yielded a TGI of 30.3 µM. Turning to `Cc1ccc(S(=O)(=O)NC(=O)NC(Cc2ccc(O)c(O)c2)C(=O)O)cc1` (configuration not stated), the TGI is greater than 100 µM. The same measure, in the same setting: in the case of `CCN1CCC(O)(c2ccc(Oc3ccc(C)cc3)cc2)C(C(=O)c2ccc(Oc3ccc(C)cc3)cc2)C1` (configuration not stated) it was 26 µM. The same measure, in the same setting: in the case of `O=[N+]([O-])c1ccc2nc3ccccc3cc2c1` it was 11.1 µM. For the molecule `NC1=Nc2cc(OCCCN3Cc4ccccc4C3)c(OCC3CC3)cc2C12CCCC2`, the GI50 is 3.72 µM and the TGI is 15.7 µM. `C=CCN(c1cc(OC)c2[nH]cc(C)c2c1[N+](=O)[O-])S(C)(=O)=O` came in with a TGI greater than 100 µM.

`CC(=O)N1c2ccccc2C(C)C1c1[nH]c2ccccc2c1C` (configuration not stated) returned a TGI of 68.2 µM. `COc1cc(C2c3cc4c(cc3[C@@H](Nc3cccc([N+](=O)[O-])c3)C3COC(=O)[C@H]23)OCO4)cc(OC)c1O` (some centres not stated) displayed a TGI greater than 100 µM. As to `CC1(O)CCC2(C#N)CCC1C2O` (configuration not stated), the TGI is greater than 100 µM. Regarding `O=[N+]([O-])c1c2nc3n(c2cc2c1nc1n2CCC1)CCC3`, the TGI was greater than 100 µM. Consider `CN(C)CCCn1c2nc(=O)[nH]c(=O)c-2nc2cc(Cl)c(Cl)cc21`, for which the GI50 was 3.87 µM and the TGI stood at 13.8 µM. Regarding `Cc1ccc(Sc2sc(-c3ccccc3)nc2[P+](c2ccccc2)(c2ccccc2)c2ccccc2)cc1`, the GI50 is 0.342 µM and the TGI amounted to 1.25 µM. Take `C=CC1=C(C)C2=NC1=CC1=NC(=CC3=C(C)C4=C(O)C(C(=O)OC)C(=C5NC(=C2)C(C)C5CCC(=O)OC)C4=N3)C(CC)=C1C` (configuration not stated): the TGI is greater than 100 µM.
